Source: PubChem BioAssay AID463173 (ICCB-Longwood Screening Facility, Harvard Medical School, 2010)
Out of some 52,000 compounds screened, about 4,300 (8.3%) were called active. Rule as the data show it: active = survival mostly below about 52% (no sharp cut-off); inactive = mostly above about 56%. The list shows a part of the results.

The molecules below were run on DeltatarO mutant (assay: growth inhibition of S. aureus wild type versus tarO mutant, primary screen, teichoic acid synthesis inhibitors, RN4220, OD600 (AID 463173)). Details: OD600, 18 h, hits give low values, screened at 18.75 µg/mL (by protocol).

SMILES | survival
N#Cc1c(-n2ncnc2-c2ccccc2C(F)(F)F)sc2c1CCCCC2 | active: 6%
CCOC(=O)c1ccc(Nc2c(-c3cccc(O)c3)nc3nc[nH]n23)cc1 | active: 46%
Cc1cccc(CSCc2ccc(C(=O)NCCc3ccccc3)o2)c1 | inactive: 87%
Cc1c(N=Cc2cccnc2)c(=O)n(-c2ccccc2)n1C | inactive: 71%
COc1ccc(-c2ccc(CCC(=O)O)[nH]2)cc1 | inactive: 99%
O=C(c1cc2ccccc2oc1=O)N1CCN(c2ccc(F)cc2)CC1 | inactive: 66%
Cc1cc(C)c2c(CC(=O)Nc3ccc(S(=O)(=O)N4CCCCC4)cc3)coc2c1 | inactive: 76%
CCOC(=O)c1ccc(NC(=O)Cn2c(=O)cc(C(F)(F)F)c3c(C)nn(C)c32)cc1 | inactive: 95%
Cc1ccc(C(=O)Nc2ccc(S(=O)(=O)Nc3onc(C)c3C)cc2)cc1 | inactive: 77%
Cc1ccc(Cl)cc1N1CCN(CCCNC(=O)C2COc3ccccc3C2)CC1 (centres undefined) | inactive: 83%
COc1ccc(-c2cc(C(=O)Nc3cccc(O)c3)on2)cc1OC | inactive: 80%
Fc1ccc(CSc2nc(NCc3ccccc3)c3ccccc3n2)cc1 | inactive: 91%
CCc1ccc2nc3sc(C(N)=O)c(N)c3cc2c1 | inactive: 109%
COc1ccc(CNC(=O)Cn2c(=O)cc(C)c3c(C)nn(-c4cccc(Cl)c4C)c32)cc1 | inactive: 95%
O=c1[nH]nc(-c2ccccc2)c2cc3c(=O)[nH]nc(-c4ccccc4)c3cc12 | inactive: 100%
O=C(Nc1ccc(NC(=O)C2CC2)nc1)c1cccc(F)c1 | inactive: 77%
COc1cc(NC(=O)CNS(=O)(=O)c2cccs2)cc(OC)c1OC | inactive: 96%
O=C(NCc1cccs1)c1ccc(CSc2nc3ccncc3n2Cc2ccccc2)cc1 | inactive: 110%
COc1cccc(C2=NS(=O)(=O)N(C)C(C(=O)Nc3ccccc3SC)=C2)c1 | inactive: 85%
CCOc1ccc(S(=O)(=O)NCCc2csc3nc(-c4ccc(F)cc4)nn23)cc1 | inactive: 97%

SMILES | survival
CCCC(=O)Nc1cc(C)c(NC(=O)CCC)cn1 | inactive: 88%
COc1cc2c(C(=O)Nc3cc(OC)c(OC)c(OC)c3)cn(C)c(=O)c2cc1OC | inactive: 63%
CCC(C)c1ccc2oc(-c3ccc(NC(=O)c4cc5ccccc5o4)cc3)nc2c1 (centres undefined) | active: 46%
COc1ccc(C2c3cc(OC)c(OC)cc3CC(=O)N2c2ccc(C)cc2)cc1 (centres undefined) | inactive: 80%
CCCC(=O)Nc1nnc(S(=O)(=O)N(C)Cc2ccc(Cl)cc2)s1 | inactive: 103%
Cc1cccc(Cn2c(=O)n3nc(-c4ccccc4)nc3c3ccccc32)c1 | active: -16%
CC(C)c1ccc(S(=O)(=O)c2nnn3c2nc(N2CCCC2)c2sccc23)cc1 | inactive: 72%
Cn1c(=O)[nH]c2cc(-c3noc(-c4ccc(Br)cc4)n3)ccc21 | inactive: 81%
COc1ccccc1Nc1nc(-c2ccccc2F)nc2ccccc12 | inactive: 73%
Cc1cccc(-c2nn3c(=O)cc(CN4CCN(C(=O)/C=C/c5ccccc5)CC4)nc3s2)c1 | inactive: 80%
Cc1cccc(C(=O)NCC(c2ccco2)S(=O)(=O)c2cccs2)c1 (centres undefined) | inactive: 92%
CCOC(=O)C1CCN(c2ncnc3c2nc2n3CCCCC2)CC1 | inactive: 87%
Cc1cccc(NC(=O)c2ccc(-c3ccccc3)s2)c1 | inactive: 82%
COc1cccc(-c2noc(C3CCCN(S(=O)(=O)c4ccccc4F)C3)n2)c1 (centres undefined) | inactive: 65%
CCc1ccc(NC(=O)c2cnn(-c3ccccc3)c2-n2cccc2)cc1 | active: 31%
CCc1cnc2c(c1SCC(=O)NCc1ccccc1Cl)c(=O)n(C)c(=O)n2C | inactive: 88%
CCC(Oc1ccccc1)C(=O)Nc1nnc(S(=O)(=O)N(CC)CC)s1 (centres undefined) | inactive: 104%
O=C(CC1N=C2c3ccccc3N=C(SCc3ccc(F)cc3)N2C1=O)NCc1ccc2c(c1)OCO2 (centres undefined) | inactive: 67%
Cn1c2c(c3ccccc31)CCc1nonc1-2 | inactive: 96%
O=C(NCCN1CCN(c2cccc(Cl)c2)CC1)Nc1ccccc1 | inactive: 77%

SMILES | survival
CCc1ccc(NC(=O)c2ccc(-c3ccccc3)s2)cc1 | inactive: 134%
Brc1cccc(-c2nnn3c2nc(NCc2ccc4c(c2)OCO4)c2ccccc23)c1 | inactive: 110%
O=C(NCC(c1cccnc1)N1CCc2ccccc21)c1cccc(Br)c1 (centres undefined) | active: 41%
COc1ccc(-n2ncc(C(=O)NCc3ccco3)c2C2CCN(C(=O)OC(C)(C)C)CC2)cc1 | inactive: 83%
CC(C)NC(=O)C1CCC(Cn2c(=O)c3sccc3n(Cc3ccc(F)cc3)c2=O)CC1 (centres undefined) | inactive: 68%
COc1cc2ccccc2cc1C(=O)Nc1cccc(-c2nc3cc(C)c(C)cc3o2)c1 | active: 41%
COC(=O)c1c(NC(=O)c2ccc(S(=O)(=O)N3CCC(C)CC3)cc2)sc2c1CCN(C)C2 | inactive: 73%
Cc1ccccc1CNC(=O)c1cnc2sc(N3CCC(C)CC3)nn2c1=O | inactive: 67%
CCn1c(SCC(=O)N2CCCCC2)nnc1-c1ccc(S(=O)(=O)N2CCCC2)cc1 | inactive: 104%
CN(C(=O)CSc1nnc(NC(=O)Nc2ccccc2)s1)c1ccccc1 | inactive: 67%
Cc1cc(C)c(NC(=O)C2CCN(c3nc4ccccc4n4cccc34)CC2)c(C)c1 | inactive: 61%
O=C(COC(=O)c1ccccc1Cl)Nc1nccs1 | inactive: 94%
CCCN(C(=O)C(C)C)c1nnc(-c2cc(OC)c(OC)c(OC)c2)s1 | inactive: 114%
Cc1cccc(C(=O)Nc2ccc(S(=O)(=O)N3CCC(c4nc5ccccc5s4)CC3)cc2)c1 | active: 40%
COCCCNC(=O)c1cc2cc(S(=O)(=O)N3CCCCC3)ccc2n1C | inactive: 100%
CCC(C)(C)NC(=O)C1CCN(S(=O)(=O)c2ccc3c(c2)CCCN3C(C)=O)CC1 | inactive: 76%
CNC(=S)N(Cc1cc2ccc(OC)cc2[nH]c1=O)C1CCCC1 | inactive: 108%
C=Cc1ccc(Cn2c(C(=O)O)c(CNCc3ccc(F)cc3)c3ccc(C)cc32)cc1 | inactive: 86%
Cc1cc(C)c(NC(=O)CSc2ncc3c(n2)-c2cc(Cl)ccc2N(C)S3(=O)=O)c(C)c1 | inactive: 106%
